Measurements from publication PMC11629677.
Results are given in words; binding and its absence hold for the method and conditions named. Binding seen in cells or lysates may run through a third protein. Some entries that bind do so weakly or less than the wild type. For some assays here: Tags and fused reporters may be left off the sequences shown. One block for each molecule: values may come before it.

Amino acid sequences for entries named in this document (tags omitted).
UniProt P38919: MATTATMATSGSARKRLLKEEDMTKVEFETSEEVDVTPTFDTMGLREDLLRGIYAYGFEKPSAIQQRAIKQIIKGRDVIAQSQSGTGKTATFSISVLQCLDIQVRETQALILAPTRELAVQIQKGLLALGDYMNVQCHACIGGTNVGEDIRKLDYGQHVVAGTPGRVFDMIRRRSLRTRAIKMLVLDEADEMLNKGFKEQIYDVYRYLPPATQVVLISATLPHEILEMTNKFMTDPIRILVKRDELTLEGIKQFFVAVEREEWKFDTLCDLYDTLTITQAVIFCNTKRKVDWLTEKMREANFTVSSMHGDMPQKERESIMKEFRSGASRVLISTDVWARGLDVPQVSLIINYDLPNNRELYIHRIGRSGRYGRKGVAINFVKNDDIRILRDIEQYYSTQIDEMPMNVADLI
UniProt Q86U44: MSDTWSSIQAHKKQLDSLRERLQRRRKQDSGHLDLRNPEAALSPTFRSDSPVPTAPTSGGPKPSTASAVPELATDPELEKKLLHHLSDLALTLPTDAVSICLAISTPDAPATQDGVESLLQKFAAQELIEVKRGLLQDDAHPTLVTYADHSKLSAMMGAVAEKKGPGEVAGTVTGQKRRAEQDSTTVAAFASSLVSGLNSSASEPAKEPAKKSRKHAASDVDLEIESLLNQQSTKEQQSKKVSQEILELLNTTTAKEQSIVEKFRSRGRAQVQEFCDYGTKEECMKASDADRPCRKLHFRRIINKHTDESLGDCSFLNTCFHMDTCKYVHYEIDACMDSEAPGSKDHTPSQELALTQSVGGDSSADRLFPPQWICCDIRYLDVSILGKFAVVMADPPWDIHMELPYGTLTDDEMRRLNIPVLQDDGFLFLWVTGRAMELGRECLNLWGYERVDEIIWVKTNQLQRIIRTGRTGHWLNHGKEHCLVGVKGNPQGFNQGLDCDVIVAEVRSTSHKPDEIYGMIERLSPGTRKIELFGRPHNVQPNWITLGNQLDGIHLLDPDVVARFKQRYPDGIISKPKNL
UniProt P08621: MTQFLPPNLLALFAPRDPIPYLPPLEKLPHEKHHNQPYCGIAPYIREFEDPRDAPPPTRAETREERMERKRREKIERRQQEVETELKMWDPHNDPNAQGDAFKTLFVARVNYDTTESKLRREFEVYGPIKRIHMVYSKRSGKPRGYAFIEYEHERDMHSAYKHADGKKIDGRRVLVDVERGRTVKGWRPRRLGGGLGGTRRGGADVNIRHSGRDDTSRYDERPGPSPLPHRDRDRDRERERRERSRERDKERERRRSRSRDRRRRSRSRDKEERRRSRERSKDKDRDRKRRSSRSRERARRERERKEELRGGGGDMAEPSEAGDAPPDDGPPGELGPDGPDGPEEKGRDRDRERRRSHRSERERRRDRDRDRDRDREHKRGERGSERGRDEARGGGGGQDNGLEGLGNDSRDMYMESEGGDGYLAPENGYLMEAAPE

Tests used:
[1] = target: T1, FLAG-ZFC3H1 (1-1,233) (human) (UniProt O60293); experiment: co-IP; FLAG-tagged bait expressed in HEK293 cells, lysate (20 mM Tris-HCl pH 8, 137 mM NaCl, 1% NP-40, 2 mM EDTA) on FLAG M2 beads, 3 h or overnight at 4°C; washes with 300 mM NaCl; precipitates treated with buffer or RNase A/T1 and reisolated; immunoblot for endogenous proteins
T1 sequence: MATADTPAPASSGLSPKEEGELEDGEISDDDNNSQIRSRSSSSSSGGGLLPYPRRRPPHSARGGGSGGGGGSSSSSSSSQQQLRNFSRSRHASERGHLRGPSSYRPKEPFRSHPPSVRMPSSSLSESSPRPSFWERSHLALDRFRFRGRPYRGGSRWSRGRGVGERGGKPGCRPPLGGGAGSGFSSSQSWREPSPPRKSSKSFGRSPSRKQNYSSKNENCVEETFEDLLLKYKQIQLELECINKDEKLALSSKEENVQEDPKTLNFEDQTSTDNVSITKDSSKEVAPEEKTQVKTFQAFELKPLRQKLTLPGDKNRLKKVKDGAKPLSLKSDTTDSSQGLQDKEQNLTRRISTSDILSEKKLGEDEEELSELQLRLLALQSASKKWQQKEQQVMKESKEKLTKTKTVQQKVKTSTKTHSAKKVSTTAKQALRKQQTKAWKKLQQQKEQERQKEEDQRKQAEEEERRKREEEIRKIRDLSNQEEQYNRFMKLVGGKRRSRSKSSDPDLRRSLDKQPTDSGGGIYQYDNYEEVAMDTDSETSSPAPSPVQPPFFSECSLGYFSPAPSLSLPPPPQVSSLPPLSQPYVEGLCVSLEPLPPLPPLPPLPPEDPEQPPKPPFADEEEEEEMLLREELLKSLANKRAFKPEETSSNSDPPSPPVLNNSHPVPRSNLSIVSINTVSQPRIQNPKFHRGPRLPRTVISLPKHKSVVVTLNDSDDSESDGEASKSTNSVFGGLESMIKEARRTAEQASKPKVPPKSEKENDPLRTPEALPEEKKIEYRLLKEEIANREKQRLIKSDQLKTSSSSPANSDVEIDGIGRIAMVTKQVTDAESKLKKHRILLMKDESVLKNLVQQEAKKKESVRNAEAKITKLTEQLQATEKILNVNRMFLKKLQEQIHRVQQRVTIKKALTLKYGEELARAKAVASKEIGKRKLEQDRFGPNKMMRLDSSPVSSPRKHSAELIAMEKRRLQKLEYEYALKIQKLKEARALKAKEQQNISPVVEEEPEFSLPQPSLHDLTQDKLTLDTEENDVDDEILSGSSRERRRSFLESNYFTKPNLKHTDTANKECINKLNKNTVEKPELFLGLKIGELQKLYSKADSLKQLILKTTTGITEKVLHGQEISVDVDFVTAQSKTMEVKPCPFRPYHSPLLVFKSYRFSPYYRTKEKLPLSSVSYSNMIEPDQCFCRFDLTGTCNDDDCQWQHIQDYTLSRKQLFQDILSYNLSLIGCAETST

FLAG-ZFC3H1-HA (human) = FLAG-ZFC3H1-HA (human) (UniProt O60293); experiment: as above

- binding [1]: no binding
- binding (FLAG-ZFC3H1-HA (human)): no binding
Molecule: eIF4AIII (endogenous) (from UniProt P38919 1-411)

- binding [1]: no binding
Molecule: METTL3 (endogenous) (from UniProt Q86U44 1-580)

- binding [1]: binds
- binding (FLAG-ZFC3H1-HA (human)): binds
Molecule: U1-70K (endogenous) (from UniProt P08621 1-437)

- binding [1]: binds
- binding (FLAG-ZFC3H1-HA (human)): binds
B1: YTHDC2 (endogenous) (protein, UniProt Q9H6S0 1-1430)
chain: MSRPSSVSPRQPAPGGGGGGGPSPCGPGGGGRAKGLKDIRIDEEVKIAVNIALERFRYGDQREMEFPSSLTSTERAFIHRLSQSLGLVSKSKGKGANRYLTVKKKDGSETAHAMMTCNLTHNTKHAVRSLIQRFPVTNKERTELLPKTERGNVFAVEAENREMSKTSGRLNNGIPQIPVKRGESEFDSFRQSLPVFEKQEEIVKIIKENKVVLIVGETGSGKTTQIPQFLLDDCFKNGIPCRIFCTQPRRLAAIAVAERVAAERRERIGQTIGYQIRLESRVSPKTLLTFCTNGVLLRTLMAGDSTLSTVTHVIVDEVHERDRFSDFLLTKLRDLLQKHPTLKLILSSAALDVNLFIRYFGSCPVIYIQGRPFEVKEMFLEDILRTTGYTNKEMLKYKKEKQQEEKQQTTLTEWYSAQENSFKPESQRQRTVLNVTDEYDLLDDGGDAVFSQLTEKDVNCLEPWLIKEMDACLSDIWLHKDIDAFAQVFHLILTENVSVDYRHSETSATALMVAAGRGFASQVEQLISMGANVHSKASNGWMALDWAKHFGQTEIVDLLESYSATLEFGNLDESSLVQTNGSDLSAEDRELLKAYHHSFDDEKVDLDLIMHLLYNICHSCDAGAVLIFLPGYDEIVGLRDRILFDDKRFADSTHRYQVFMLHSNMQTSDQKKVLKNPPAGVRKIILSTNIAETSITVNDVVFVIDSGKVKEKSFDALNFVTMLKMVWISKASAIQRKGRAGRCRPGICFRLFSRLRFQNMLEFQTPELLRMPLQELCLHTKLLAPVNCPIADFLMKAPEPPPALIVRNAVQMLKTIDAMDTWEDLTELGYHLADLPVEPHLGKMVLCAVVLKCLDPILTIACTLAYRDPFVLPTQASQKRAAMLCRKRFTAGAFSDHMALLRAFQAWQKARSDGWERAFCEKNFLSQATMEIIIGMRTQLLGQLRASGFVRARGGGDIRDVNTNSENWAVVKAALVAGMYPNLVHVDRENLVLTGPKEKKVRFHPASVLSQPQYKKIPPANGQAAAIKALPTDWLIYDEMTRAHRIANIRCCSAVTPVTILVFCGPARLASNALQEPSSFRVDGIPNDSSDSEMEDKTTANLAALKLDEWLHFTLEPEAASLLLQLRQKWHSLFLRRMRAPSKPWSQVDEATIRAIIAVLSTEEQSAGLQQPSGIGQRPRPMSSEELPLASSWRSNNSRKSSADTEFSDECTTAERVLMKSPSPALHPPQKYKDRGILHPKRGTEDRSDQSSLKSTDSSSYPSPCASPSPPSSGKGSKSPSPRPNMPVRYFIMKSSNLRNLEISQQKGIWSTTPSNERKLNRAFWESSIVYLVFSVQGSGHFQGFSRMSSEIGREKSQDWGSAGLGGVFKVEWIRKESLPFQFAHHLLNPWNDNKKVQISRDGQELEPLVGEQLLQLWERLPLGEKNTTD

- binding (FLAG-ZFC3H1-HA (human)): no binding
B2: G3BP2 (endogenous) (protein, UniProt Q9UN86 1-482)
chain: MVMEKPSPLLVGREFVRQYYTLLNKAPEYLHRFYGRNSSYVHGGVDASGKPQEAVYGQNDIHHKVLSLNFSECHTKIRHVDAHATLSDGVVVQVMGLLSNSGQPERKFMQTFVLAPEGSVPNKFYVHNDMFRYEDEVFGDSEPELDEESEDEVEEEQEERQPSPEPVQENANSGYYEAHPVTNGIEEPLEESSHEPEPEPESETKTEELKPQVEEKNLEELEEKSTTPPPAEPVSLPQEPPKAFSWASVTSKNLPPSGTVSSSGIPPHVKAPVSQPRVEAKPEVQSQPPRVREQRPRERPGFPPRGPRPGRGDMEQNDSDNRRIIRYPDSHQLFVGNLPHDIDENELKEFFMSFGNVVELRINTKGVGGKLPNFGFVVFDDSEPVQRILIAKPIMFRGEVRLNVEEKKTRAARERETRGGGDDRRDIRRNDRGPGGPRGIVGGGMMRDRDGRGPPPRGGMAQKLGSGRGTGQMEGRFTGQRR
